The supplement of paper PMC10126150
Sequences with one replicate were seen in a single cluster, so their values are uncertain.

Tested on: ATP
Test: switch fluorescence ratio, 500 uM ATP over buffer (Cy3 cluster intensity, sum of 5 cycles each) (fold (ratio)); higher = stronger signal-on switching upon ATP binding; sequences stand for … in TCGTCGGCAGCGTCAGATGTGTATAAGAGACAGTTTTTTTTTTTTTTTTTTTTTTTTT…TC
Details: aptamer strand: ATP DNA aptamer (quencher-CACCTGGGGGAGTATTGCGGAGGAAGG + anchor), 100 nM annealed; ATP concentration: 500 uM; one replicate
Summary of the method: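 After annealing to 100 nM quencher-labelled ATP aptamer, Cy3-labelled switching-strand clusters on a modified Illumina MiSeq flow-cell were imaged in selection buffer. A second image followed after 15 min with 500 uM ATP at 22 °C, and five such buffer/ATP cycles were done, each separated by NaOH stripping and re-annealing. The fluorescence ratio, averaged per switch-domain sequence, is summed target-cycle over summed buffer-cycle Cy3 intensity per cluster, with clusters outside 100-1000 RFU excluded.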
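Note: ATP exposure 15 min at 22 °C before imaging.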

## GATTGGAGAA
  switch fluorescence ratio: 0.992

## GGCTCCAGAA
  switch fluorescence ratio: 0.995

## TCATTAGTTG
  switch fluorescence ratio: 0.983

## AGGGGGAGCC
  switch fluorescence ratio: 1.03

## CGCGTCTCTT
  switch fluorescence ratio: 1.03

## AAGATAAGGT
  switch fluorescence ratio: 1.01

## CGAGGCTTTA
  switch fluorescence ratio: 1.42

## GCCCTGATGA
  switch fluorescence ratio: 0.985

## AAGAGTCTGA
  switch fluorescence ratio: 1.01

## AGTTTATTGT
  switch fluorescence ratio: 1.02

## CGTGCATAAC
  switch fluorescence ratio: 2.53

## TCGTAAGAGA
  switch fluorescence ratio: 1.01

## CGATGTGTA
  switch fluorescence ratio: 1.02

## TTTCCCTTGG
  switch fluorescence ratio: 1.03

## TTTGTTCATA
  switch fluorescence ratio: 0.921

## ACCTTGTACC
  switch fluorescence ratio: 1.18

## GCGGGCTAGT
  switch fluorescence ratio: 1.01

## TAGGAGAATG
  switch fluorescence ratio: 0.994

## CATCTCTGAT
  switch fluorescence ratio: 0.985

## TAACTGTCCA
  switch fluorescence ratio: 1

## TTGCCCGACT
  switch fluorescence ratio: 1

## TGCCAGGAAG
  switch fluorescence ratio: 1.01

## TAGTCACTTT
  switch fluorescence ratio: 1.02

## ATGGGAGGA
  switch fluorescence ratio: 0.948

## CACTACCGTC
  switch fluorescence ratio: 1.15

## CATCACGCCG
  switch fluorescence ratio: 0.962

## AAGTTAGA
  switch fluorescence ratio: 0.995

## CCGGTTGCCG
  switch fluorescence ratio: 0.963

## AGTTGGGTT
  switch fluorescence ratio: 0.99

## TCACGTTGC
  switch fluorescence ratio: 1.02

## CCGAGGAGTG
  switch fluorescence ratio: 1.06

## TATTCGTCGG
  switch fluorescence ratio: 0.993

## CGAATGTAAG
  switch fluorescence ratio: 0.993

## CGCTCGAGTG
  switch fluorescence ratio: 0.997

## AGGTCCGAGC
  switch fluorescence ratio: 1.07

## GTACATTAAC
  switch fluorescence ratio: 1.09

## CCGAATGCCA
  switch fluorescence ratio: 1.64

## CGACTAAAG
  switch fluorescence ratio: 0.981

## AATTGATGCC
  switch fluorescence ratio: 0.951

## ATAGAGAGTC
  switch fluorescence ratio: 0.956

## ATCATTTGCG
  switch fluorescence ratio: 1.01

## CGGGGATAGA
  switch fluorescence ratio: 1.01

## CGGAAAAGGA
  switch fluorescence ratio: 1.06

## AAACTTTTTG
  switch fluorescence ratio: 0.976

## GTAAGGACCT
  switch fluorescence ratio: 1.05

## TGCCGGCCAG
  switch fluorescence ratio: 0.974

## ATCTCTTGGC
  switch fluorescence ratio: 0.974

## ATGGAGATTG
  switch fluorescence ratio: 1

## CGTTTCCATA
  switch fluorescence ratio: 0.952

## ATTATACTTG
  switch fluorescence ratio: 1.02

## ACGCTGAGGG
  switch fluorescence ratio: 1.06

## AGAGGCGAA
  switch fluorescence ratio: 0.989

## TGGGTGTTAT
  switch fluorescence ratio: 0.987

## GCTCTGAGAA
  switch fluorescence ratio: 1.04

## GGAGCCTCGG
  switch fluorescence ratio: 0.975

## TTGCAATTCT
  switch fluorescence ratio: 1.59

## TAGTGGCCGC
  switch fluorescence ratio: 1.04

## AGTTATTGC
  switch fluorescence ratio: 1

## CGAATGATGT
  switch fluorescence ratio: 1.02

## CCTGTAGTTT
  switch fluorescence ratio: 0.984

## TTAATTTTG
  switch fluorescence ratio: 0.985

## GAACCGGAAG
  switch fluorescence ratio: 1.08

## CGTTAAAGCA
  switch fluorescence ratio: 0.997

## AGGTCCGTAT
  switch fluorescence ratio: 1.03

## ACCCTAATGT
  switch fluorescence ratio: 0.999

## TGAGTCAGGA
  switch fluorescence ratio: 1.04

## TTTAACTACC
  switch fluorescence ratio: 1.2

## GTCTGGTCAT
  switch fluorescence ratio: 0.984

## CGGCATTGGC
  switch fluorescence ratio: 1.05

## AGTGAACGTT
  switch fluorescence ratio: 0.988

## TAGGCTCTGG
  switch fluorescence ratio: 1.01

## AGCCCGAGAC
  switch fluorescence ratio: 1.31

## TGATAGGGAC
  switch fluorescence ratio: 0.998

## ATGAGTAGCG
  switch fluorescence ratio: 1.06

## GATGGCTGT
  switch fluorescence ratio: 0.962

## CGTTTAGGCG
  switch fluorescence ratio: 0.932

## GCGTACACGA
  switch fluorescence ratio: 1.02

## ATAATCAGGA
  switch fluorescence ratio: 1.03

## CTAGACATGT
  switch fluorescence ratio: 1.01

## ACTAAGTAAT
  switch fluorescence ratio: 1.02

## TGATGATTAC
  switch fluorescence ratio: 1.08

## ATCCCCCGTC
  switch fluorescence ratio: 0.994

## AATACATGGT
  switch fluorescence ratio: 0.967

## CGGTTACCAT
  switch fluorescence ratio: 0.996

## GAGGTACGGA
  switch fluorescence ratio: 0.993

## TCTCTAGTGG
  switch fluorescence ratio: 0.981

## GGAGTTGGTG
  switch fluorescence ratio: 0.966

## TTCTGGATGA
  switch fluorescence ratio: 1.02

## TGTTGTCCCC
  switch fluorescence ratio: 1.08

## ATTTTAGTCT
  switch fluorescence ratio: 0.981

## TGCGGCACTC
  switch fluorescence ratio: 1.14

## ATCAGCAA
  switch fluorescence ratio: 3.72

## GCTCGCACTC
  switch fluorescence ratio: 2.91

## GTTCGGGTAT
  switch fluorescence ratio: 0.985

## GCGCACCGGT
  switch fluorescence ratio: 0.96

## CCAATTTTGT
  switch fluorescence ratio: 0.969

## TCCGTTGTCA
  switch fluorescence ratio: 1.02

## CCAAATTCAT
  switch fluorescence ratio: 0.992

## TCATTCCTTA
  switch fluorescence ratio: 1.03

## TAAGGCGACA
  switch fluorescence ratio: 0.977

## CAGTGGTATT
  switch fluorescence ratio: 0.985

## CTATGTGATC
  switch fluorescence ratio: 1.11

## AGTACAAG
  switch fluorescence ratio: 1

## TCGCCTACAC
  switch fluorescence ratio: 1.49

## GACGACCGGA
  switch fluorescence ratio: 1.13

## ATTCTGGCGG
  switch fluorescence ratio: 1.03

## CTGGCGTAAG
  switch fluorescence ratio: 1.01

## TGATAGAGCA
  switch fluorescence ratio: 1.02

## GCATGATGGT
  switch fluorescence ratio: 1.01

## CATATATGAA
  switch fluorescence ratio: 1.01

## AGCCCGGACT
  switch fluorescence ratio: 1.1

## GCTACTTCGC
  switch fluorescence ratio: 1.19

## CAGTAACCAG
  switch fluorescence ratio: 0.991

## TAGCTTGTTA
  switch fluorescence ratio: 0.975

## CTGCGCGCAT
  switch fluorescence ratio: 1.06

## TTTTTGCTT
  switch fluorescence ratio: 0.975

## ACGTGTTCGC
  switch fluorescence ratio: 0.984

## CAGTGTATGA
  switch fluorescence ratio: 1.02

## GGGGAAAACC
  switch fluorescence ratio: 1.03

## CAGGGCTTTA
  switch fluorescence ratio: 0.953

## GGATCTTGAG
  switch fluorescence ratio: 1.02

## CATATATTA
  switch fluorescence ratio: 1.01

## TACTCTAGTA
  switch fluorescence ratio: 0.99

## GGAGATGGTC
  switch fluorescence ratio: 1.01

## CAACTTCAC
  switch fluorescence ratio: 1.18

## AAGAATGGCA
  switch fluorescence ratio: 1

## GGGAACTCCC
  switch fluorescence ratio: 1

## ATCGATCGAC
  switch fluorescence ratio: 1.03

## ATCAGATCCC
  switch fluorescence ratio: 0.99

## GATATATTTG
  switch fluorescence ratio: 1.01

## AAAAAGAAGT
  switch fluorescence ratio: 0.979

## TTTGGCACCC
  switch fluorescence ratio: 0.959

## GACATGAAAC
  switch fluorescence ratio: 1.02

## TAGCGCAGGG
  switch fluorescence ratio: 1.03

## CCGAATAAGT
  switch fluorescence ratio: 1.01

## CTGGGACTCA
  switch fluorescence ratio: 1.08

## CGGTGTGCTG
  switch fluorescence ratio: 0.903

## TCCAAAGTGC
  switch fluorescence ratio: 1.85

## CCCATTCGT
  switch fluorescence ratio: 1.02

## CTTGATTTTG
  switch fluorescence ratio: 1.04

## GAACCTTGGG
  switch fluorescence ratio: 0.988

## ATTCAGGACA
  switch fluorescence ratio: 1.02

## ACAAATGGAT
  switch fluorescence ratio: 1.05

## GTCATCCCTA
  switch fluorescence ratio: 0.996

## GCCATTCTTT
  switch fluorescence ratio: 0.964

## GAAGAGGAGA
  switch fluorescence ratio: 0.984

## CTTCTAGTAA
  switch fluorescence ratio: 1.1

## CTGGTCATGG
  switch fluorescence ratio: 1.02

## AGTGGCTTCA
  switch fluorescence ratio: 1

## CACTGTCGG
  switch fluorescence ratio: 0.966

## GGTGTATCGA
  switch fluorescence ratio: 1.01

## AGTCGCTCGT
  switch fluorescence ratio: 0.985

## AATCCTTTAC
  switch fluorescence ratio: 1.22

## CATACAATCC
  switch fluorescence ratio: 1.08

## TGCCACTATT
  switch fluorescence ratio: 0.976

## GTGTTCCCCT
  switch fluorescence ratio: 1.03

## TAGAGTTGGT
  switch fluorescence ratio: 0.998

## TGGACCGAAT
  switch fluorescence ratio: 1.03

## ATTGGGTTAC
  switch fluorescence ratio: 1.01

## ATGTGAGCAC
  switch fluorescence ratio: 1.05

## CCAAAGGAG
  switch fluorescence ratio: 0.986

## ATCCGGTCC
  switch fluorescence ratio: 1.13

## AGTGTCCGTA
  switch fluorescence ratio: 1

## TATAGTGATC
  switch fluorescence ratio: 1.09

## ATGCGTGAGC
  switch fluorescence ratio: 0.993

## GATGCATGGA
  switch fluorescence ratio: 1.05

## GGCCCGAGAT
  switch fluorescence ratio: 1.03

## TTTAATCTCT
  switch fluorescence ratio: 1

## GGTCTTTACG
  switch fluorescence ratio: 0.979

## CTCTAATGAT
  switch fluorescence ratio: 0.999

## TGCACGCCTA
  switch fluorescence ratio: 1.03

## CAGAGAAGTG
  switch fluorescence ratio: 0.97

## AATAAGAT
  switch fluorescence ratio: 1.04

## CGTGCAGCAT
  switch fluorescence ratio: 1.08

## TGGACGCCTT
  switch fluorescence ratio: 0.989

## AGCCAGGGTT
  switch fluorescence ratio: 0.974

## CGTATAAGCG
  switch fluorescence ratio: 0.899

## TTGAAATCAG
  switch fluorescence ratio: 1.02

## ATGGGCCCCA
  switch fluorescence ratio: 1.01

## TTGTGCACGT
  switch fluorescence ratio: 0.99

## CGGTCTCCCG
  switch fluorescence ratio: 1.01

## GGTATGGCGG
  switch fluorescence ratio: 0.978

## CGAAGTTGTG
  switch fluorescence ratio: 0.95

## GCTGCTGTTA
  switch fluorescence ratio: 0.989

## TCTGAGTAGT
  switch fluorescence ratio: 0.966

## TCCTATGTGC
  switch fluorescence ratio: 1.08

## CATAATTAC
  switch fluorescence ratio: 1.03

## GATGAGAGTT
  switch fluorescence ratio: 1.01

## CTTCGCCATT
  switch fluorescence ratio: 2.01

## ATTGGAGAC
  switch fluorescence ratio: 0.982

## CCTCTCGGGG
  switch fluorescence ratio: 0.995

## CTTTCTTGAG
  switch fluorescence ratio: 0.99

## TTTTGTGAAC
  switch fluorescence ratio: 1.01

## CGGGAACATA
  switch fluorescence ratio: 1.02

## ACGTGTAGCT
  switch fluorescence ratio: 1.04

## TGGGTAGGCC
  switch fluorescence ratio: 1.08

## GACTGCATCA
  switch fluorescence ratio: 1.08

## ACTTGATG
  switch fluorescence ratio: 1.01

## ACTCTTGGTG
  switch fluorescence ratio: 1.12

## CTCACAACTG
  switch fluorescence ratio: 0.985

## AGGGGTCCGA
  switch fluorescence ratio: 1.01
